The other results are listed elsewhere or left out. Further columns of the screen follow, without active or inactive calls. Compounds called inactive in the main read-out are mostly missing here.

The assay can be described thus: growth inhibition of WT strain, primary screen, mitochondrial fusion inhibitor project, WT and mutant strains, chemical genetic (AID 1362). Also: tested in S. cerevisiae. The note with it: mitochondrial fusion phenotypic screen, at 10 µM.
As to `Cc1noc2ncnc(N3CCN(c4cccc(Cl)c4)CC3)c12`, the inhibition is 23.5%.
The same measure for `Cc1ccc(S(=O)(=O)CC(=O)Nc2nc(-c3ccccc3)cs2)cc1`: 44.3%; for `Nc1[nH]n2c(=O)c3c(nc2c1N=Nc1ccccc1)CCCC3`: 9.8%; for `Cc1cc(N/N=C/c2cccc(Cl)c2)nc(NCc2ccccc2)n1`: 81.2%.
The same measure for `Cc1sc2nc3c4ccccc4c(NCc4ccco4)nn3c(=O)c2c1C`: 10.6%; for `CCOC(=O)c1c(NC(=O)C(C)N2CCN(C(=O)c3ccco3)CC2)sc2c1CCCC2` (stereo not given): -13.8%.
The same measure for `CC(C)(C)C(=O)/C(=C/c1cccc([N+](=O)[O-])c1)n1cncn1`: 41.4%.
Turning to `O=c1cc(/C=C/c2ccccc2)oc2c1ccc1ccccc12`, the inhibition was 52.6%.
The same measure for `CCC(Sc1nnnn1-c1ccccc1)C(=O)Nc1nc2ccccc2s1` (stereo not given): 35.9%.
`COC(=O)c1ccc(CSc2nc3ccccc3c(=O)n2CC(C)C)o1`: the inhibition came to 3.82%.
The same measure for `N#C/C(=C\c1ccccn1)c1nc2ccccc2s1`: 48.6%; for `Cc1cccc2cc(-c3ccccc3)c(-c3ccccc3)c[n+]12`: 56.7%.
The same measure for `C=CCNC(=S)N(C1CCCCC1)C1CCCCC1`: 63.1%; for `COc1cccc(N/C(C)=C/C(=O)c2ccc(Br)cc2)c1`: 44%; for `CCN1C/C(=C\c2cccc([N+](=O)[O-])c2)C(=O)/C(=C/c2cccc([N+](=O)[O-])c2)C1`: 33%.
The same measure for `CC(NC(=O)Cn1ncc(Cl)c(Cl)c1=O)C12CC3CC(CC(C3)C1)C2` (stereo not given): 44.3%; for `CCCCC(c1nnnn1CC1CCCO1)N1CCN(c2cc(Cl)ccc2C)CC1` (stereo not given): 5.73%.
For `C(=N\N1CCN(C2c3ccccc3-c3ccccc32)CC1)/c1ccccn1`, the inhibition was found to be 45.9%.
Regarding `CC(NC(=S)NCc1ccc(F)cc1)C12CC3CC(CC(C3)C1)C2` (stereo not given), the inhibition worked out at 57%.
The same measure for `Cc1cccc(N2CCN(C(c3ccccc3)c3nnnn3C(C)(C)C)CC2)c1C` (stereo not given): 13.9%.
The same measure for `O=C(Cc1c(O)c2ccccc2[nH]c1=O)NCc1ccccc1F`: 7.59%; for `Cc1ccc(-n2cccc2/C=C2\C(=N)N3N=C(C(C)C)SC3=NC2=O)cc1`: 30.1%; for `CC(C)CNC(=S)N1CCN(C(c2ccccc2)c2ccccc2)CC1`: 19.7%.
The same measure for `CN(c1ccc(O)cc1)c1nc(-c2cccs2)cs1`: 24.8%; for `CCOC(=O)c1oc2cccc(OCC(O)CNC(C)C)c2c1C` (stereo not given): 15.8%; for `Fc1cccc(NC(=S)NNc2c3ccccc3nc3ccccc23)c1`: 31.2%.
Regarding `Cc1ccc(C2NC(c3ccc(C)cc3)C(C)C(=NO)C2C)cc1` (stereo not given), the inhibition is 73.7%.
The same measure for `CNc1nc(SCc2ccc(C)cc2)nc2c1CCCC2`: 65.8%; for `c1csc(C(c2nnnn2C2CCCCC2)N2CCCC3(CCCCC3)C2)c1` (stereo not given): 5.87%.
Consider `NNc1nc(-c2ccccc2)cc(-c2ccccc2)n1`, for which the inhibition was found to be 56.5%.
The same measure for `O=C(c1cnn2c(C(F)F)cc(-c3ccccc3)nc12)N1CCc2ccccc2C1`: 70.5%.
The same measure for `CCC(C)Sc1nc2c(c(=O)n1C)SC(C)C2` (stereo not given): 16.5%; for `CCOC(=O)c1ccc(Oc2nc(NC(C)(C)C)nc(N(C)C)n2)cc1`: 19.3%; for `O=C(Nc1ccccc1)c1ccc(-c2ccc(Br)cc2)o1`: 67.2%.
Turning to `CCc1ccccc1NC(=S)N(Cc1cccs1)C1CCCC1`, the inhibition came to 36.5%.
The same measure for `COc1ccc(C(C)(C)C)cc1NC(=O)c1ccoc1C`: 61.7%; for `CCCN(CC(=O)Nc1cc(Cl)cc(Cl)c1)CC(=O)Nc1ccc(F)c(F)c1F`: 35%.
The same measure for `CC1CCCCC1n1c(=S)[nH]c2ccccc2c1=O` (stereo not given): 54.9%; for `O=C(Nc1ccc(-c2nc3ccccc3[nH]2)cc1)C1CCCO1` (stereo not given): 66.3%; for `O=C(CCCOc1ccc(Cl)cc1Cl)N1CCc2ccccc2C1`: 46.5%.
The same measure for `O=C(COC(=O)CC(c1ccccc1)c1ccccc1)NCc1ccc(Cl)cc1`: -3.07%; for `CC(C)(C)NC(=S)NC(=O)C12CC3CCC(CC(C3)C1)C2`: 37%.
On to `CC1(CCc2ccccc2)NC(=S)N(c2ccc(Cl)cc2)N1` (stereo not given), for which the inhibition amounted to 55.8%.
As for `CCOc1ccccc1OCC(=O)Nc1ccc(S(=O)(=O)N(C)C)cc1`, the inhibition was 11.2%.
The same measure for `Cc1ccc(SCCNC(=S)Nc2ccccc2)cc1`: 57.8%.
The same measure for `COc1cccc2c1C(=O)c1c(O)c3c(c(O)c1C2=O)C[C@@](O)(C(=O)CO)C[C@@H]3O[C@H]1C[C@H](N)[C@H](O)[C@H](C)O1`: 58.7%; for `COC(=O)Nc1snnc1C`: -6.92%.
For `CCN(CC(O)Cn1c2ccccc2c2ccccc21)S(=O)(=O)c1ccc(F)cc1` (stereo not given), the inhibition came out at 32.9%.
For `O=C(COc1ccc(Cl)cc1Cl)NCCC1=CCCCC1`, the inhibition came to 36.1%.
Regarding `C=C(C)C1CC=C(C)/C(=N\NC(=S)Nc2ccc(C)cc2)C1` (stereo not given), the inhibition is 8.44%.
The same measure for `CCc1nnc(NC(=O)c2ccc(S(=O)(=O)N3CCCc4ccccc43)cc2)o1`: 62.1%; for `CC1C/C(=C/c2ccccn2)C(=O)/C(=C/c2ccccn2)C1` (stereo not given): 65.9%; for `Cc1cc(N2CCN(c3ccccc3)CC2)nc(-n2nc(C)cc2C)n1`: 58.9%.
The same measure for `C=CCc1c(C)[nH]c2c(OC)cccc2c1=S`: 33.7%.
Regarding `Cc1nn(-c2nc3ccccc3[nH]2)c(=O)c2ccccc12`, the inhibition amounted to 87.7%.
In the case of `N=C(N)c1ccc(OCCCCCOc2ccc(C(=N)N)cc2)cc1`, the inhibition was determined as 75.9%.
The same measure for `CCOc1ccc(NC(=O)CSc2nnc(-c3ccco3)n2C)cc1`: -38.1%; for `O=C(CCCCCN1C(=O)c2ccccc2C1=O)Nc1ccc(S(=O)(=O)N2CCCCC2)cc1`: 5.22%.
The same measure for `CCNc1nc(CSc2ccccc2)nc2sc(C)c(C)c12`: 22%; for `NS(=O)(=O)c1ccc(N2N=C(c3ccccc3)CC2c2ccccc2)cc1` (stereo not given): -0.77%.
The same measure for `CCCc1sc(N/N=C/c2ccccn2)nc1-c1ccc(F)cc1`: 27.7%; for `Cc1onc(-c2ccccc2Cl)c1C(=O)NC(=S)Nc1ccccc1F`: 62.5%.
`CCCCC(=O)O[C@H]1CC[C@H]2[C@@H]3CCc4cc(O)ccc4[C@H]3CC[C@]12C`: the inhibition was -5.58%.
The same measure for `Cc1ccc(NC(=O)NCC2CCN(Cc3cccc(Cl)c3)CC2)cc1Cl`: 51.3%.
Regarding `N#CC(C#N)=C1C=CC=CN1/C(=C\c1ccco1)C(=O)c1ccc(Br)cc1`, the inhibition was determined as 42.6%.
Regarding `CCc1nnc(NC(=O)c2cccc(C(=O)Nc3nnc(CC)s3)n2)s1`, the inhibition was found to be 9.24%.
The same measure for `Cc1ccccc1N=C(NOCc1ccc(Cl)cc1Cl)c1nonc1N`: 42.8%.
The same measure for `Fc1ccc(C(c2ccc(F)cc2)N2CCN(C/C=C/c3ccccc3)CC2)cc1`: 77.7%; for `O=C(/C=C/c1ccc(Cl)cc1Cl)N(Cc1ccc(Cl)cc1)C1CCS(=O)(=O)C1` (stereo not given): 12%.
The same measure for `O=c1cc(N2CCCCC2)c(-c2ccccc2)nn1Cc1ccccc1Cl`: 45.6%.

A word on the inhibition: it is the relative decrease from the control value, in per cent.

Values taken from PubChem BioAssay AID1362 (SRMLSC, 2008).
